Results on two substances are retold here after article PMC5986797, “Laminin heparin-binding peptides bind to several growth factors and enhance diabetic wound healing” (Nature Communications, 2018).

Chains of the proteins cited; added tags and fusions are not shown. Lines headed by an entry give the natural chain unless they say otherwise; changes in a name come on top. A line that says so, or that is headed by a name, gives the form on record, which may keep a tag or linker. Residues count along the entry.
CXCL-12α (P48061, residues 22-89): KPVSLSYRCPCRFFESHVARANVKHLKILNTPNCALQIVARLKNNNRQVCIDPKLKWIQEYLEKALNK
C–X–C motif ligand (CXCL)-12γ (P48061, form named): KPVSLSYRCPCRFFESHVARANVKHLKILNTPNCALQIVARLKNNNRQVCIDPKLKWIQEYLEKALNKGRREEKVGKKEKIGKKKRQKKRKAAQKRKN
UniProt P05230, residues 16-155: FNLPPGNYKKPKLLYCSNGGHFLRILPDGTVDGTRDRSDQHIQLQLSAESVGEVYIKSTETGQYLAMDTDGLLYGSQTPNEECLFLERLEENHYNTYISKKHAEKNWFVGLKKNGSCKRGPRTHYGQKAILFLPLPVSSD
UniProt O76093, residues 28-207: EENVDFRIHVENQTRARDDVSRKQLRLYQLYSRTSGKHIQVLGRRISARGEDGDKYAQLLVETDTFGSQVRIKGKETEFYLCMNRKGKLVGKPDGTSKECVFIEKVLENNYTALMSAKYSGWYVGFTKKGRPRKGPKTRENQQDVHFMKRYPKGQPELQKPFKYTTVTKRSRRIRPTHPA
UniProt P05019, residues 49-118: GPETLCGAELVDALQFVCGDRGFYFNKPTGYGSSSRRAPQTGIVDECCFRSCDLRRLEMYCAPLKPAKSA
UniProt Q99075, residues 63-148: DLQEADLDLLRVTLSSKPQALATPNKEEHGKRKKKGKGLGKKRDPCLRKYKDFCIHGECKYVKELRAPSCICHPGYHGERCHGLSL
UniProt P01127, residues 82-190: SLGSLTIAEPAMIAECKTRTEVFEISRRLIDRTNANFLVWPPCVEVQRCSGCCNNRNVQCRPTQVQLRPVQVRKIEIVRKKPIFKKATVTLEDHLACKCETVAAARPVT
UniProt Q16363: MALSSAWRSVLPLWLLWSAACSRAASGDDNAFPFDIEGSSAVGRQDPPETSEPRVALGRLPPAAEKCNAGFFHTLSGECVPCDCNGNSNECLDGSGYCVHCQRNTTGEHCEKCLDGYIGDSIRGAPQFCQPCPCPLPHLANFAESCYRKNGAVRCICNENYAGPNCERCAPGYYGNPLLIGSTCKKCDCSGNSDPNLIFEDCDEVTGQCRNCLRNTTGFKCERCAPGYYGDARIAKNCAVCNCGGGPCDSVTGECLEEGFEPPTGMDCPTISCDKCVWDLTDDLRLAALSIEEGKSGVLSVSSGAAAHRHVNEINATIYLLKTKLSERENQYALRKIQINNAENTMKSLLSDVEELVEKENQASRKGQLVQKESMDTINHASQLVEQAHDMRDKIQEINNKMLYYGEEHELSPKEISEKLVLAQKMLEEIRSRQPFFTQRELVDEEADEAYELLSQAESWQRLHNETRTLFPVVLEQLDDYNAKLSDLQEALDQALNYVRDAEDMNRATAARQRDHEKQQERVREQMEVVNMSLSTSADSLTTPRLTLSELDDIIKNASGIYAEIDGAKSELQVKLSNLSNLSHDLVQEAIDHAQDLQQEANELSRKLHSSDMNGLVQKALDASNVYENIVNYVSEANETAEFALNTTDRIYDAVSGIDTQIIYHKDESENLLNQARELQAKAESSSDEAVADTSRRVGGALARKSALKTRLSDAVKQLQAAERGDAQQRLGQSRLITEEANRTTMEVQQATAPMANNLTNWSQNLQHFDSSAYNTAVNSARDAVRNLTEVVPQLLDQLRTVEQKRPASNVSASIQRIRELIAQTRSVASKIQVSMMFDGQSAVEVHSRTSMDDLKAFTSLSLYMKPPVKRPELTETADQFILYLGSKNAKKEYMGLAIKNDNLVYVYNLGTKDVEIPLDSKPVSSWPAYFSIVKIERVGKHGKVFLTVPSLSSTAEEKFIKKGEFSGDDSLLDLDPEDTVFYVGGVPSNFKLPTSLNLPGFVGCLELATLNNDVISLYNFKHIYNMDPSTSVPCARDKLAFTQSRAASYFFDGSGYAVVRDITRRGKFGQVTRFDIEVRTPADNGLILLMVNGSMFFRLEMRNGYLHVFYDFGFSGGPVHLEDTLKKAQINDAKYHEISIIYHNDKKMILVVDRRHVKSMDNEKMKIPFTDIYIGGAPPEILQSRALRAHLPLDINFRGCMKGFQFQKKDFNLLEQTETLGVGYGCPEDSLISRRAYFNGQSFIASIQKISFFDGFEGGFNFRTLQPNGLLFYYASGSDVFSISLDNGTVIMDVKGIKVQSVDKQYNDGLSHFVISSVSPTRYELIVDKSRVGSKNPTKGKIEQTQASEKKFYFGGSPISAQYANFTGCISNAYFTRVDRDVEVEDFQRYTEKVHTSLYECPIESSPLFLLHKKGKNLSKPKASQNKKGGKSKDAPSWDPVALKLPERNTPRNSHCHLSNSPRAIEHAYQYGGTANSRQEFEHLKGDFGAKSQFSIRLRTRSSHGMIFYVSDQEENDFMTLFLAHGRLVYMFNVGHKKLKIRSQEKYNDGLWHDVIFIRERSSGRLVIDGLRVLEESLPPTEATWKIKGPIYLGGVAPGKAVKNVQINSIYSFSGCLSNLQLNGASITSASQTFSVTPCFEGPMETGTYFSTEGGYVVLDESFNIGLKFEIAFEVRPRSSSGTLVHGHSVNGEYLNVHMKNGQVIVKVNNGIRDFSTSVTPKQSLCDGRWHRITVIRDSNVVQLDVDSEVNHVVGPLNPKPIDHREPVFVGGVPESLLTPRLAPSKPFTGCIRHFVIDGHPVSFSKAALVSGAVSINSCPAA

Targets include CXCL-12α (UniProt P48061); FGF-1 (UniProt P05230); FGF-18 (UniProt O76093); IGF-1 (UniProt P05019).
What all share (test): ELISA; plates coated with 50 nM GF or chemokine in PBS; 10 nM laminin isoform in PBS added; bound laminin detected with anti-LAMC1 or anti-LAMA3 polyclonal antibody; A450 signals greater than 0.1 taken as binding; BSA-coated wells as control; both purified
Background: In an ELISA, binding on a coated surface is turned into a signal by an enzyme label.

The target in the next assay is T1, BMP-2 (UniProt P12643).
T1 sequence: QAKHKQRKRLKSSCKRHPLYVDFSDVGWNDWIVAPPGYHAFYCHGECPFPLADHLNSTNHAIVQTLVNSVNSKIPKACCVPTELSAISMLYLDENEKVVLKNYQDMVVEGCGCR

For another assay, the target named is T2, BMP-3 (UniProt P12645).
T2 sequence: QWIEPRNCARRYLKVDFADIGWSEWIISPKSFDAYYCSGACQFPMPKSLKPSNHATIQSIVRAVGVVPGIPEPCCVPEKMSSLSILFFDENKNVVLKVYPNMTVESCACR

The next assay addresses T3, CXCL-11 (UniProt O14625).
T3 sequence: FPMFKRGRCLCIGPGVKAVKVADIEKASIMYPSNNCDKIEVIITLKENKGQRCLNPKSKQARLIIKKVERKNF

The target in assay [1] is C–X–C motif ligand (CXCL)-12γ (UniProt P48061).
A further assay deals with T4, FGF-6 (UniProt P10767).
T4 sequence: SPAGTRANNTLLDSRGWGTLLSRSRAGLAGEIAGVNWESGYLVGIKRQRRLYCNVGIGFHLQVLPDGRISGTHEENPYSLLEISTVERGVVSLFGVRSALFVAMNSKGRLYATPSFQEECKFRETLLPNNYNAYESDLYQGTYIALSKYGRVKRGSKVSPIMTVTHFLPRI

The next assay addresses T5, NT-3 (UniProt P20783).
T5 sequence: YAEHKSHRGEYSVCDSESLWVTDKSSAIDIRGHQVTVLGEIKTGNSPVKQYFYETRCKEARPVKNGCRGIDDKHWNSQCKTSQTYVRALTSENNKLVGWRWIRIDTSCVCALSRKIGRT

In the next assay the target is T6, PlGF-1 (human) (UniProt P49763).
T6 sequence: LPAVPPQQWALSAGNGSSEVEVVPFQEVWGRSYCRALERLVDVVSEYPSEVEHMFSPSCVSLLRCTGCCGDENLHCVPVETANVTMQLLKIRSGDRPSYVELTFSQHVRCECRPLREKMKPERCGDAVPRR

For assay [2], the target named is heparin-binding epidermal growth factor (HB-EGF) (UniProt Q99075).
The target in assay [3] is T7, placental growth factor (PlGF)-2 (human) (UniProt P49763).
T7 sequence: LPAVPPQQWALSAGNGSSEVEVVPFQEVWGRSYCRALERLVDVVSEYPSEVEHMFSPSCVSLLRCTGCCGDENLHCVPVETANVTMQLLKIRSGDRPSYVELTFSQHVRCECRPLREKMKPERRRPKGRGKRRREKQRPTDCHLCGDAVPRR

For assay [4], the target named is platelet-derived growth factor PDGF-BB (human) (UniProt P01127).

These are yes or no findings as the source states them, for the method shown. Some entries that bind do so weakly or less than the wild type.

Consider “recombinant human laminin-411 (from UniProt Q16363 25-1823; P07942 22-1786; P11047 34-1609) (complex)”, for which the binding entry with BMP-2 is listed as “binds”; in the assay with BMP-3, “binds”; in the assay with CXCL-11, “no binding (tested: 10 nM laminin)”; with CXCL-12α it was “no binding (tested: 10 nM laminin)”; in assay [1], “binds”; in the assay with FGF-1, “no binding (tested: 10 nM laminin)”. The binding result is reported as “binds” with FGF-18; “no binding (tested: 10 nM laminin)” with FGF-6; “no binding (tested: 10 nM laminin)” with IGF-1; “binds” with NT-3; “no binding (tested: 10 nM laminin)” with PlGF-1 (human); “binds weakly” in assay [2]. Also, the binding result in assay [3] and in [4] was “binds” each time.

Turning to “recombinant human laminin-421 (from UniProt Q16363 25-1823; P55268 33-1798; P11047 34-1609) (complex)”, the binding entry was “binds” with BMP-2; “binds” in the assay with BMP-3; “no binding (tested: 10 nM laminin)” in the assay with CXCL-11; “no binding (tested: 10 nM laminin)” with CXCL-12α; “binds” in assay [1]; “no binding (tested: 10 nM laminin)” with FGF-1. For the same substance, the binding entry with FGF-18 is recorded as “binds”; in the assay with FGF-6, “no binding (tested: 10 nM laminin)”; with IGF-1, “no binding (tested: 10 nM laminin)”; with NT-3 it was “binds”; with PlGF-1 (human), “no binding (tested: 10 nM laminin)”; in assay [2], “binds weakly”. Also, the binding result in assay [3] and in [4] was “binds” each time.
